To fix the notation:
B1: chr10:97759570:97759671:+|3pUTR|ENSG00000155256|msi1|total|mutant (ssRNA)
RNA: GGGAGUUCUACAGUCCGACGAUCGACUGAGCGAGUGGACUCCGGGCUGGGCAGGCAGCCGCCACCAGAGGGCAGCAGCGAACCCGGCCAGGCCUGACUGGGGUCUGAAGAUCAGGGUCAGUGUGGCUGUGCCUGGGAAUUCCACAACAGAGGAUUGAGCAUCA
B2: chr5:16663783:16663884:-|3pUTR|ENSG00000145555|msi1|FALSE|bound_elsewhere (ssRNA)
RNA: GGGAGUUCUACAGUCCGACGAUCUGAGGAUACAAAAUUCACAGAUGCUCAAGUCCCUGCUAUACAGUGGUAUAAUAUUUGCAUAGAACCUGCACACAUCUUUCCUUACCCUUUAAAUCAUCUCCAGGUUACAGAUACCUAGCACAACAGAGGAUUGAGCAUCA
B3: chr22:28629602:28629705:-|CDS|ENSG00000100154|unk|FALSE|unique (ssRNA)
RNA: GGGAGUUCUACAGUCCGACGAUCAUUGUUCUGUAUAAUGAAGCCCUGGCUGUUGACCCUCAGAACUGCAUCUUAUACAGCAAUAGAUCUGCAGCCUACAUGAAAAUCCAGCAGUAUGACAAGGCACUGGAUGAUGCAAUCAAACAACAGAGGAUUGAGCAUCA
B4: chr17:44352837:44352938:+|3pUTR|ENSG00000030582|unk|FALSE|unique (ssRNA)
RNA: GGGAGUUCUACAGUCCGACGAUCCUGAAGACUCUGCAGCCCUCGGGACCCCACUCGGAGGGUGCCCUCUGCUCAGGCCUCCCUAGCACCUCCCCCUAACCAAAUUCUCCCUGGACCCCAUUCUGAGCUCCCCAUCACCAUGGGCAACAGAGGAUUGAGCAUCA
B5: chr13:45957189:45957298:-|CDS|ENSG00000123200|unk|FALSE|unique (ssRNA)
RNA: GGGAGUUCUACAGUCCGACGAUCUGUUUUUGUUUUCUUCAAAUAGGGCACCAUAAAACAAGCUUACACGAGUGCUCCAAUGGUAGACAAUGAAUUACUUCGAUUGAGUCUUCGGUUAUUUAAGCGGAAGACUACUUGCCAUGCCAACAGAGGAUUGAGCAUCA
B6: chr5:138184526:138184629:+|CDS|ENSG00000112984|unk|FALSE|unique (ssRNA)
RNA: GGGAGUUCUACAGUCCGACGAUCGUGCAUGCCCCACCUAUGCAACUGGGAUUCCCAUCCCUGCACUCGUUCAUCAAGGAACAUAGUCUUCAGGUAUCCCCCAGCUUAGAGAAAGGGGCUAAGGCAGACACAGGCCUUGAUGAUCAACAGAGGAUUGAGCAUCA
B7: chr6:113953301:113953428:-|CDS|ENSG00000196591|unk|total|mutant (ssRNA)
RNA: GGGAGUUCUACAGUCCGACGAUCAAAAACCAAAACUUAUGGAUUUGUUUUCAGGUAUCAUCAGAGAGUCUUAUAUAUUGAUACCGAUAUUCAUCAUGGUGAUGGUGUUGAAGAAGCUUUUUAUACAACAGAUCGUGUAAUGACCAACAGAGGAUUGAGCAUCA
B8: ENSG00000093010:stop:overlap|stop_codon|ENSG00000093010|stop_codon|NA|stop_codon (ssRNA)
RNA: GGGAGUUCUACAGUCCGACGAUCGCUGCUGCCCAGAGCCCAUUCAGUCAGCCUCAGCCUCUCCAAAGAGCCAGGCAUUCCAGUAGAGCCCUGUGUGGACACAGCUCGCUCUGGAGGCACCACCUGAGGUCUGGGAGUGUGGGGCAACAGAGGAUUGAGCAUCA
B9: chr4:150265445:150265561:-|3pUTR|ENSG00000198589|unk|FALSE|bound_elsewhere (ssRNA)
RNA: GGGAGUUCUACAGUCCGACGAUCGGAUUAGCAAAGCAGAAAACUGGCUGCUGGGUUCUGUAGUUUUAAAAAAUCUAUAUUUUUAGUCAUAAUGAGAAGUCUAUUUUCACCAAUUAUGGAAACAUACAGUGGAGCAAGUAAACCCAACAGAGGAUUGAGCAUCA
B10: chr17:80395157:80395266:+|3pUTR|ENSG00000173821|unk|FALSE|bound_elsewhere (ssRNA)
RNA: GGGAGUUCUACAGUCCGACGAUCCUUCAAAGCCUUAACUGUCAAAUCUUGCAUUAUCUUGUUUGUACAGAAAUAUACUGGCCUAGCAGAGGCAAAAAAAAAAAAAAUGAAUUUUAUUUUACUUGUCACACCUGUCUUAAUAAACAACAGAGGAUUGAGCAUCA
B11: chr7:158693335:158693439:-|CDS|ENSG00000146918|unk|FALSE|unique (ssRNA)
RNA: GGGAGUUCUACAGUCCGACGAUCAAGGAAACAGAAAGAAGAAUUAUGGCAAAGGCUGAAGAAUUUAUUGACAGAUGUGUUGUUAGAAAGCCCAGUGGAUGGGUGGCAGGUAGUGGAAGCCCAGGGUGAAGACAAUAUGGAAACCAACAGAGGAUUGAGCAUCA
B12: ENSG00000198589:be:win_4251|CDS|ENSG00000198589|bound_else_gene|NA|bound_elsewhere_windowed (ssRNA)
RNA: GGGAGUUCUACAGUCCGACGAUCUAUAUUUGCAAGUUCUCUUGGCUUUACUGAAAUUGAAGCUGAAAAAAGUAUGUCAUCUGGAGGAAUUUUGCGGCAGUGUCUCCGACUAGUUUGUGCAGUCGCAGUAAGGAAUUGCUUGGACAACAGAGGAUUGAGCAUCA
B13: chr4:108667468:108667493:+|3pUTR|ENSG00000198856|msi1_unk|FALSE|overlapping (ssRNA)
RNA: GGGAGUUCUACAGUCCGACGAUCGAAUUUUUUUUCCUGCUGGCCUAUUGCUAUACCAAUGAUGUUGAGUGGCAUUUUCUUUUUAGUUUUUCAUUAAAAUAUAUUCCAUAUCUACAACUAUAAUAUCAAAUAAAGUGAUUAUUUCAACAGAGGAUUGAGCAUCA
B14: chr12:46358264:46358384:-|3pUTR|ENSG00000134294|msi1|total|mutant (ssRNA)
RNA: GGGAGUUCUACAGUCCGACGAUCAAUGUGAUCCCGUGUAAUGGAAGACCUUUGAGAACCUGGGUGUAUUAACUUUGUGUAUACCGUGUAAAUAUCCCCACUGUACUGUCCGAGGCCAACAAUUCCCGUAUGGCUUGUUGGCAACAACAGAGGAUUGAGCAUCA

The other results are listed elsewhere or left out.

Our source for the binding signal values is article PMC12136788.

The target of this assay is MSI1 full-length (mouse, UniProt Q61474 1-362). The assay can be described thus: nsRBNS (natural sequence RNA bind-n-seq); RBNS binding buffer (assumed for nsRBNS): 25 mM Tris pH 7.5, 150 mM KCl, 3 mM MgCl2, 0.01% Triton X-100, 500 ug/ml BSA, 20 U/ml SUPERase-In, 4 C; UNK is unkempt and MSI1 is Musashi-1; names of the RNAs are library labels; protein concentration not given here; high values mean tight binding.
Chain of UniProt Q61474 (Q61474 whole entry): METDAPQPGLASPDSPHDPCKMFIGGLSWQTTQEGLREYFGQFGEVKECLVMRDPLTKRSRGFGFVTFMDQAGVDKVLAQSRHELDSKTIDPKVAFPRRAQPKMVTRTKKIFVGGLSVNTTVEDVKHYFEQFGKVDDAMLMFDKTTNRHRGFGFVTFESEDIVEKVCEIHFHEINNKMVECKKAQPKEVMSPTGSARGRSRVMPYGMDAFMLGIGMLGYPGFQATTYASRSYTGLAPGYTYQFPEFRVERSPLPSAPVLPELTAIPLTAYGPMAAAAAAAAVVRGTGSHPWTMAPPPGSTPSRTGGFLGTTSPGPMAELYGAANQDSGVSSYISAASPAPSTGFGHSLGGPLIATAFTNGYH
The molecule B1 registered a binding signal of 0.309 enrichment R.
The same measure for B2: 2.21 enrichment R; for B3: 0.379 enrichment R.
The same measure for B4: 0.411 enrichment R; for B5: 0.2 enrichment R.
Molecule B6 yielded a binding signal of 0.612 enrichment R.
The same measure for B7: 1.15 enrichment R; for B8: 0.633 enrichment R.
In turn, B9 came in with a binding signal of 2.28 enrichment R.
Then B10, with 0.484 enrichment R.
The same measure for B11: 1.43 enrichment R.
Then B12, with 0.39 enrichment R.
B13 had a binding signal of 2.7 enrichment R.
The same measure for B14: 0.362 enrichment R.
